# From the supplement of paper PMC4604168 (melanoma cell lines)
# Some of the results follow. Most values come without repeats; read them as rough.
# Test system: UACC257
# Assay: cell count relative to DMSO control; melanoma cells; higher = more viable cells
# Details: library dose: standard library concentration; 72 h
# 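Also: cells treated in 1,536-well plates, then fixed and DAPI-stained, with nuclei counted from automated high-throughput microscope images.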
row,SMILES,cell count
1,"Cn1cnc2c(F)c(Nc3ccc(Br)cc3Cl)c(C(=O)NOCCO)cc21 [selumetinib] + Cc1cc([N+](=O)[O-])ccc1NS(=O)(=O)c1cc(Cl)ccc1Cl [FH535] (first compound 0.075 µM, partner dose 5 µM)",80.9%
2,"Cn1cnc2c(F)c(Nc3ccc(Br)cc3Cl)c(C(=O)NOCCO)cc21 [selumetinib] + COc1cc2ncnc(Nc3ccc(Oc4ccccc4)cc3)c2cc1OC [SrcI1] (first compound 0.075 µM, partner dose 10 µM)",87.7%
3,"C[C@]1(O)C[C@@H](c2nc(-c3ccc4ccc(-c5ccccc5)nc4c3)c3c(N)nccn32)C1 + CCc1ccc(CCOc2ccc(CC3SC(=O)NC3=O)cc2)nc1 [pioglitazone] (first compound 2 µM, partner dose 10 µM)",85.1%
4,"CCN(CC)CCNC(=O)c1c(C)[nH]c(/C=C2\C(=O)Nc3ccc(F)cc32)c1C [sunitinib] + O=S(=O)(c1ccccc1)N(CC(F)(F)F)c1ccc(C(O)(C(F)(F)F)C(F)(F)F)cc1 [T0901317] (first compound 2 µM, partner dose 7 µM)",88.2%
5,"Cn1cnc2c(F)c(Nc3ccc(Br)cc3Cl)c(C(=O)NOCCO)cc21 [selumetinib] + Oc1cc(-c2nc(-c3ccccc3)[nH]c2-c2ccncc2)ccc1Cl [L779450] (first compound 0.075 µM, partner dose 1 µM)",72.5%
6,"C[C@]1(O)C[C@@H](c2nc(-c3ccc4ccc(-c5ccccc5)nc4c3)c3c(N)nccn32)C1 + N#Cc1c(O)c2c(-c3ccc(-c4ccccc4O)cc3)csc2[nH]c1=O [A769662] (first compound 2 µM, partner dose 10 µM)",90.2%
7,"COc1cc([C@@H]2c3cc4c(cc3[C@@H](O[C@@H]3O[C@@H]5CO[C@@H](C)O[C@H]5[C@H](O)[C@H]3O)[C@H]3COC(=O)[C@H]23)OCO4)cc(OC)c1O [etoposide] + N#Cc1c(O)c2c(-c3ccc(-c4ccccc4O)cc3)csc2[nH]c1=O [A769662] (first compound 0.1 µM, partner dose 10 µM)",102%
8,"CCN(CC)CCNC(=O)c1c(C)[nH]c(/C=C2\C(=O)Nc3ccc(F)cc32)c1C [sunitinib] + COc1ccc(-c2ccc3c(N4CCOCC4)nc(N4C[C@@H](C)O[C@@H](C)C4)nc3n2)cc1CO [KU0063794] (first compound 2 µM, partner dose 0.1 µM)",85.7%
9,"CCN(CC)CCNC(=O)c1c(C)[nH]c(/C=C2\C(=O)Nc3ccc(F)cc32)c1C [sunitinib] + N#Cc1c(O)c2c(-c3ccc(-c4ccccc4O)cc3)csc2[nH]c1=O [A769662] (first compound 2 µM, partner dose 10 µM)",98.3%
10,"Cn1cnc2c(F)c(Nc3ccc(Br)cc3Cl)c(C(=O)NOCCO)cc21 [selumetinib] + CCc1ccc(CCOc2ccc(CC3SC(=O)NC3=O)cc2)nc1 [pioglitazone] (first compound 0.075 µM, partner dose 10 µM)",85.8%
11,"C[C@]1(O)C[C@@H](c2nc(-c3ccc4ccc(-c5ccccc5)nc4c3)c3c(N)nccn32)C1 + COc1ccc(-c2ccc3c(N4CCOCC4)nc(N4C[C@@H](C)O[C@@H](C)C4)nc3n2)cc1CO [KU0063794] (first compound 2 µM, partner dose 0.1 µM)",87%
12,"Cn1cnc2c(F)c(Nc3ccc(Br)cc3Cl)c(C(=O)NOCCO)cc21 [selumetinib] + O=c1cc(-c2cccc3c2Sc2ccccc2S3)oc(N2CCOCC2)c1 [KU55933] (first compound 0.075 µM, partner dose 5 µM)",119%
13,"Cn1cnc2c(F)c(Nc3ccc(Br)cc3Cl)c(C(=O)NOCCO)cc21 [selumetinib] + O=C(Nc1ccccc1)c1cc([N+](=O)[O-])ccc1Cl [GW9662] (first compound 0.075 µM, partner dose 10 µM)",91.3%
14,"COc1cc([C@@H]2c3cc4c(cc3[C@@H](O[C@@H]3O[C@@H]5CO[C@@H](C)O[C@H]5[C@H](O)[C@H]3O)[C@H]3COC(=O)[C@H]23)OCO4)cc(OC)c1O [etoposide] + COc1cc(N2CCC(N3CCN(C)CC3)CC2)ccc1Nc1ncc(Cl)c(Nc2ccccc2S(=O)(=O)C(C)C)n1 [NVP-TAE684] (first compound 0.1 µM, partner dose 0.4 µM)",88.3%
15,"Cn1cnc2c(F)c(Nc3ccc(Br)cc3Cl)c(C(=O)NOCCO)cc21 [selumetinib] + COc1ccc(COc2ccc(Cc3cnc(N)nc3N)cc2OC)cc1 [GW2580] (first compound 0.075 µM, partner dose 5 µM)",96%
16,"CCN(CC)CCNC(=O)c1c(C)[nH]c(/C=C2\C(=O)Nc3ccc(F)cc32)c1C [sunitinib] + Oc1cc(-c2nc(-c3ccccc3)[nH]c2-c2ccncc2)ccc1Cl [L779450] (first compound 2 µM, partner dose 1 µM)",92%
17,"Cn1cnc2c(F)c(Nc3ccc(Br)cc3Cl)c(C(=O)NOCCO)cc21 [selumetinib] + CCN(CC)CCCCNc1ncc2cc(-c3cc(OC)cc(OC)c3)c(NC(=O)NC(C)(C)C)nc2n1 [PD173074] (first compound 0.075 µM, partner dose 0.5 µM)",97%
18,"COc1cc([C@@H]2c3cc4c(cc3[C@@H](O[C@@H]3O[C@@H]5CO[C@@H](C)O[C@H]5[C@H](O)[C@H]3O)[C@H]3COC(=O)[C@H]23)OCO4)cc(OC)c1O [etoposide] + CCCCCCCCCCCC1=C(O)C(=O)C=C(O)C1=O [Embelin] (first compound 0.1 µM, partner dose 6 µM)",84.6%
19,"CCN(CC)CCNC(=O)c1c(C)[nH]c(/C=C2\C(=O)Nc3ccc(F)cc32)c1C [sunitinib] + Cc1cc([N+](=O)[O-])ccc1NS(=O)(=O)c1cc(Cl)ccc1Cl [FH535] (first compound 2 µM, partner dose 5 µM)",63.3%
20,"C[C@]1(O)C[C@@H](c2nc(-c3ccc4ccc(-c5ccccc5)nc4c3)c3c(N)nccn32)C1 + COC(=O)c1sccc1S(=O)(=O)Nc1ccc(Nc2ccccc2)cc1OC [GSK0660] (first compound 2 µM, partner dose 5 µM)",73.3%
21,"COc1cc([C@@H]2c3cc4c(cc3[C@@H](O[C@@H]3O[C@@H]5CO[C@@H](C)O[C@H]5[C@H](O)[C@H]3O)[C@H]3COC(=O)[C@H]23)OCO4)cc(OC)c1O [etoposide] + c1cc(-c2cnn3cc(-c4ccc(OCCN5CCCCC5)cc4)cnc23)ccn1 [Dorsomorphin] (first compound 0.1 µM, partner dose 2 µM)",67.2%
22,"C[C@]1(O)C[C@@H](c2nc(-c3ccc4ccc(-c5ccccc5)nc4c3)c3c(N)nccn32)C1 + CCN(CC)CCCCNc1ncc2cc(-c3cc(OC)cc(OC)c3)c(NC(=O)NC(C)(C)C)nc2n1 [PD173074] (first compound 2 µM, partner dose 0.5 µM)",97.4%
23,"COc1cc([C@@H]2c3cc4c(cc3[C@@H](O[C@@H]3O[C@@H]5CO[C@@H](C)O[C@H]5[C@H](O)[C@H]3O)[C@H]3COC(=O)[C@H]23)OCO4)cc(OC)c1O [etoposide] + CCN(CC)CCCCNc1ncc2cc(-c3cc(OC)cc(OC)c3)c(NC(=O)NC(C)(C)C)nc2n1 [PD173074] (first compound 0.1 µM, partner dose 0.5 µM)",92.5%
24,"COc1cc([C@@H]2c3cc4c(cc3[C@@H](O[C@@H]3O[C@@H]5CO[C@@H](C)O[C@H]5[C@H](O)[C@H]3O)[C@H]3COC(=O)[C@H]23)OCO4)cc(OC)c1O [etoposide] + O=C(Nc1ccccc1)c1cc([N+](=O)[O-])ccc1Cl [GW9662] (first compound 0.1 µM, partner dose 10 µM)",67.5%
25,"COc1cc([C@@H]2c3cc4c(cc3[C@@H](O[C@@H]3O[C@@H]5CO[C@@H](C)O[C@H]5[C@H](O)[C@H]3O)[C@H]3COC(=O)[C@H]23)OCO4)cc(OC)c1O [etoposide] + COc1ccc2c(c1)CCC1C2CCC2(C)C(NCCCCCCN3C(=O)C=CC3=O)CCC12 [U73122] (first compound 0.1 µM, partner dose 2 µM)",96%
26,"Cn1cnc2c(F)c(Nc3ccc(Br)cc3Cl)c(C(=O)NOCCO)cc21 [selumetinib] + O=C(O)C(=O)Nc1sc2c(c1C(=O)O)CCNC2 [TCS401] (first compound 0.075 µM, partner dose 8.33333 µM)",80.5%
27,"C[C@]1(O)C[C@@H](c2nc(-c3ccc4ccc(-c5ccccc5)nc4c3)c3c(N)nccn32)C1 + Oc1nc(-c2ccc(C(F)(F)F)cc2)nc2c1CSCC2 [XAV939] (first compound 2 µM, partner dose 10 µM)",82.1%
28,"COc1cc([C@@H]2c3cc4c(cc3[C@@H](O[C@@H]3O[C@@H]5CO[C@@H](C)O[C@H]5[C@H](O)[C@H]3O)[C@H]3COC(=O)[C@H]23)OCO4)cc(OC)c1O [etoposide] + Oc1cc(-c2nc(-c3ccccc3)[nH]c2-c2ccncc2)ccc1Cl [L779450] (first compound 0.1 µM, partner dose 1 µM)",87.4%
29,"C[C@]1(O)C[C@@H](c2nc(-c3ccc4ccc(-c5ccccc5)nc4c3)c3c(N)nccn32)C1 + CCCCCCCCCCCC1=C(O)C(=O)C=C(O)C1=O [Embelin] (first compound 2 µM, partner dose 6 µM)",77.8%
